{
  "source": "the supplement of paper PMC11417369",
  "note": "± gives the standard deviation of the averaged measurements. The list shows a part of the results.",
  "data": [
    {"tested_on": "PfAP2-EXP AP2 domain (GST-tagged)", "assay": "gcPBM binding intensity (ln(normalized median fluorescence intensity)); higher = stronger DNA binding", "summary_of_the_method": "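For binding intensity, the highest Masliner-normalised natural-log median intensity across replicate spots of either probe orientation was taken. Protein bound to the array was stained with Alexa488 anti-GST antibody and scanned at 488 nm. The protein, GST-tagged P. falciparum DNA-binding domains from E. coli at about 25 μg on average, had been applied for 1 h to an Agilent 4 × 180k array of primer-extended double-stranded 36-bp intergenic genomic probes and negative controls.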", "values": [
      {"sequence": "AAATCAACTTATTTTTGTACATATATTTATTATATA [XGTACX_site2925]", "gcPBM binding intensity (ln)": "8.81 ± 0.51"},
      {"sequence": "GAATGAAAATAAAATTGTACACATATCTATATCTAT [XGTACX_site2642]", "gcPBM binding intensity (ln)": "8.43 ± 0.3"},
      {"sequence": "TTTAATTAGGATAATTGTACTGAACTAAGTATATTT [XGTACX_site1871]", "gcPBM binding intensity (ln)": "8.24 ± 0.45"},
      {"sequence": "TATATTATATGTATTGCACACCTTCAACAACTACTT [CACACA_site8121]", "gcPBM binding intensity (ln)": "8.93 ± 0.28"},
      {"sequence": "AAAAAAAAAAAAAGTTGTACATTATTTTCCTAATTC [XGTACX_site7998]", "gcPBM binding intensity (ln)": "8.21 ± 0.32"},
      {"sequence": "ATACATATATATGTGTGTACATATGTGTATACATTT [XGTACX_site6544]", "gcPBM binding intensity (ln)": "8.58 ± 0.26"},
      {"sequence": "ATATGTATTAAGTGTACACATATAATGGGTTTGTTA [CACACA_site5682]", "gcPBM binding intensity (ln)": "8.91 ± 0.36"},
      {"sequence": "TTTTATAAATCTAAACGTATCTAAATGAATAATTAA [GTGCAC_negctrl_site44]", "gcPBM binding intensity (ln)": "8.11 ± 0.41"},
      {"sequence": "GAAATAATTGTTAAAGGTACACAATGCATATACAAT [XGTACX_site238]", "gcPBM binding intensity (ln)": "8.93 ± 0.36"},
      {"sequence": "ATAATATATACTAAAAGTACATATTATAATAAATTA [XGTACX_site6749]", "gcPBM binding intensity (ln)": "8.09 ± 0.31"},
      {"sequence": "AAAATAATAATTAATACATGCATTAATTCTTTTTTT [TGCATGCA_site741]", "gcPBM binding intensity (ln)": "8.31 ± 0.38"},
      {"sequence": "ACATATGTATGAATATCAAAAAATCCCTATTTAATG [GTGCAC_negctrl_site27]", "gcPBM binding intensity (ln)": "8.36 ± 0.37"},
      {"sequence": "AGGAAAATAGAAAAAGCACACATATATTTTGGAATG [CACACA_site8080]", "gcPBM binding intensity (ln)": "8.72 ± 0.51"},
      {"sequence": "ACTTCATTTTTTTTATGTACACAGAAGATTTACAAA [XGTACX_site4021]", "gcPBM binding intensity (ln)": "8.96 ± 0.29"},
      {"sequence": "ATTTATTTATTTTTTTGTACGAATGTTGCACATATA [XGTACX_site4101]", "gcPBM binding intensity (ln)": "8.59 ± 0.49"},
      {"sequence": "TATATACATATATATACACACATATATATATTTTAT [CACACA_site3788]", "gcPBM binding intensity (ln)": "8.26 ± 0.4"},
      {"sequence": "TATATAAATAAATGTGTACACACATTAAAATCAAAC [CACACA_site8733]", "gcPBM binding intensity (ln)": "8.77 ± 0.28"},
      {"sequence": "CATATATTATTTAATAGTACATATAAAAGAAAAAAA [XGTACX_site4643]", "gcPBM binding intensity (ln)": "8.62 ± 0.4"},
      {"sequence": "TATATATATATAGACACACACACACCCATATATATA [CACACA_site4117]", "gcPBM binding intensity (ln)": "10 ± 0.32"},
      {"sequence": "TATAACTATAAAAGTAGTACACATATATATTATATA [XGTACX_site1391]", "gcPBM binding intensity (ln)": "8.645 ± 0.021"},
      {"sequence": "TTTTTTTAAATATACACACACATTTATACCTATATA [CACACA_site7572]", "gcPBM binding intensity (ln)": "8.53 ± 0.5"},
      {"sequence": "TTCCTAATTGACAACACACACAACAAAAAAGGGATT [CACACA_site1279]", "gcPBM binding intensity (ln)": "8.9 ± 0.52"},
      {"sequence": "AATGGTTTAAAATACTGTACATATATATAAAAGTAA [XGTACX_site6187]", "gcPBM binding intensity (ln)": "8.68 ± 0.38"},
      {"sequence": "CACTAAAATAAACACACACACACACCGATATATATA [CACACA_site9379]", "gcPBM binding intensity (ln)": "8.69 ± 0.43"},
      {"sequence": "TTAATTTTATTTTTTTGTACACATAAATATTATAAA [XGTACX_site4680]", "gcPBM binding intensity (ln)": "8.62 ± 0.31"},
      {"sequence": "TATATTTATATGATAACACACATAAATTATACATTT [CACACA_site1671]", "gcPBM binding intensity (ln)": "8.09 ± 0.4"},
      {"sequence": "CTTGTCATTTTGCACACACACATGTATAGGTTATTA [CACACA_site7431]", "gcPBM binding intensity (ln)": "9.28 ± 0.21"},
      {"sequence": "TAAATATATTAAGCTTGTACATGAAAAAAAAAAAAA [XGTACX_site3264]", "gcPBM binding intensity (ln)": "8.63 ± 0.43"},
      {"sequence": "AAAAAAAAAAAAAAAACACACAATAAAGTAAAATTT [CACACA_site135]", "gcPBM binding intensity (ln)": "8.61 ± 0.31"},
      {"sequence": "ATATATAAATTTTAGTGTACATTAATTTTTTTTTTT [XGTACX_site7782]", "gcPBM binding intensity (ln)": "8.44 ± 0.4"},
      {"sequence": "AGTCTGAATAAAATTACACACATATACATATATATA [CACACA_site1780]", "gcPBM binding intensity (ln)": "8.43 ± 0.22"},
      {"sequence": "TATGTATATAAATTAACACACATATGTGGTTAATAG [CACACA_site3143]", "gcPBM binding intensity (ln)": "8.34 ± 0.23"},
      {"sequence": "TACCTTTTTTGTTTTATGCACACCATATAACCAAGG [CACACA_site30]", "gcPBM binding intensity (ln)": "8.82 ± 0.23"},
      {"sequence": "AAGAAATATTTATACACACACACAAACATATAAATA [CACACA_site6981]", "gcPBM binding intensity (ln)": "8.87 ± 0.54"},
      {"sequence": "TATAACTATTCACAGACATGCACATAATAACAATAA [TGCATGCA_site207]", "gcPBM binding intensity (ln)": "8.98 ± 0.41"},
      {"sequence": "TTTTTTTTTCCGTGTTGTACAAAAAAAAAGATTTTG [XGTACX_site3925]", "gcPBM binding intensity (ln)": "8.69 ± 0.52"},
      {"sequence": "TAAAAAAAAAAAAAAGCATGCTATATTATATTACAC [TGCATGCA_site241]", "gcPBM binding intensity (ln)": "8.74 ± 0.32"},
      {"sequence": "TATATTTTTTTTGTGCGTACATACCATTTTAATAAT [XGTACX_site2751]", "gcPBM binding intensity (ln)": "8.91 ± 0.28"},
      {"sequence": "CACAAACAAAAACACACACACACACCCACAAAAATG [CACACA_site2429]", "gcPBM binding intensity (ln)": "8.49 ± 0.48"},
      {"sequence": "ATTGGGTACAAATACACACACATATAAATATTAATA [CACACA_site7173]", "gcPBM binding intensity (ln)": "8.64 ± 0.43"},
      {"sequence": "AATTATTGTATGCTATACGTTCCCCTCTAATTTATC [CACACA_negctrl_site1052]", "gcPBM binding intensity (ln)": "8.73 ± 0.47"},
      {"sequence": "TATTATTTTATGAATACACACATATACGAAAATATT [CACACA_site964]", "gcPBM binding intensity (ln)": "8.39 ± 0.44"},
      {"sequence": "TATTTTTATATAATGTGTACTTATACCTTATTTTTT [XGTACX_site1658]", "gcPBM binding intensity (ln)": "8.58 ± 0.4"},
      {"sequence": "TTTCCCTACCAAAAATGTACTTATAAGCGTTTTTAT [XGTACX_site739]", "gcPBM binding intensity (ln)": "8.61 ± 0.42"},
      {"sequence": "AAAAAAAAAAAACACACACACACACTAATACATACA [CACACA_site8135]", "gcPBM binding intensity (ln)": "8.59 ± 0.64"}
    ]}
  ]
}
